Experimental data as given in the supplement of paper PMC8728848.
Some of the results follow.

Tests used:
Test in all cases: glycan array binding signal (z-score within array); higher = stronger binding
Conditions in all cases: glycan notation: IUPAC condensed, linker removed
[1] = target: Gal(b1-3)GlcNAc(b1-2)Man(a1-3)[Gal(b1-3)GlcNAc(b1-2)Man(a1-6)]Man(b1-4)GlcNAc(b1-4)[Fuc(a1-6)]GlcNAc
How it was run: (§1)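 The binding signal is a Z-score computed within each array. Data were drawn from 3228 arrays in the Consortium for Functional Glycomics database, restricted to those with a known protein sequence. Scores were averaged over arrays of the same protein sequence at different concentrations or buffers, and over linkers, and negative values can be taken as non-binding.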

[2] = target: Gal(b1-3)GlcNAc(b1-2)Man(a1-3)[GlcNAc(b1-4)][Gal(b1-3)GlcNAc(b1-2)Man(a1-6)]Man(b1-4)GlcNAc(b1-4)GlcNAc
How it was run: as §1

[3] = target: Gal(b1-3)GlcNAc(b1-2)[Gal(b1-3)GlcNAc(b1-6)]Man(a1-6)[Gal(b1-3)GlcNAc(b1-2)Man(a1-3)]Man(b1-4)GlcNAc(b1-4)GlcNAc
How it was run: as §1

[4] = target: Gal(b1-3)GlcNAc(b1-3)Gal(b1-3)GlcNAc
How it was run: as §1

[5] = target: Gal(b1-3)GlcNAc(b1-3)Gal(b1-4)Glc
How it was run: as §1

[6] = target: Gal(b1-3)GlcNAc(b1-3)Gal(b1-4)GlcNAc
How it was run: as §1

[7] = target: Gal(b1-3)GlcNAc(b1-3)Gal(b1-4)GlcNAc(b1-2)Man(a1-3)[Gal(b1-3)GlcNAc(b1-3)Gal(b1-4)GlcNAc(b1-2)Man(a1-6)]Man(b1-4)GlcNAc(b1-4)GlcNAc
How it was run: as §1

[8] = target: Gal(b1-3)GlcNAc(b1-3)Gal(b1-4)GlcNAc(b1-2)[Gal(b1-3)GlcNAc(b1-3)Gal(b1-4)GlcNAc(b1-6)]Man(a1-6)[Gal(b1-3)GlcNAc(b1-3)Gal(b1-4)GlcNAc(b1-2)Man(a1-3)]Man(b1-4)GlcNAc(b1-4)[Fuc(a1-6)]GlcNAc
How it was run: as §1

[9] = target: Gal(b1-3)GlcNAc(b1-3)Gal(b1-4)GlcNAc(b1-3)Gal(b1-4)GlcNAc(b1-2)[Gal(b1-3)GlcNAc(b1-3)Gal(b1-4)GlcNAc(b1-3)Gal(b1-4)GlcNAc(b1-6)]Man(a1-6)[Gal(b1-3)GlcNAc(b1-3)Gal(b1-4)GlcNAc(b1-3)Gal(b1-4)GlcNAc(b1-2)Man(a1-3)]Man(b1-4)GlcNAc(b1-4)[Fuc(a1-6)]GlcNAc
How it was run: as §1

[10] = target: Gal(b1-3)GlcNAc(b1-3)Gal(b1-4)GlcNAc(b1-6)[Gal(b1-3)GlcNAc(b1-3)]Gal(b1-4)Glc
How it was run: as §1

[11] = target: Gal(b1-3)GlcNAc(b1-3)Gal(b1-4)[Fuc(a1-3)]GlcNAc
How it was run: as §1

[12] = target: Gal(b1-3)GlcNAc(b1-3)Gal(b1-4)[Fuc(a1-3)]GlcNAc(b1-6)[Gal(b1-3)GlcNAc(b1-3)]Gal(b1-4)Glc
How it was run: as §1

[13] = target: Gal(b1-3)GlcNAc(b1-3)GalNAc
How it was run: as §1

[14] = target: Gal(b1-3)GlcNAc(b1-6)Gal(b1-4)GlcNAc
How it was run: as §1

[15] = target: Gal(b1-3)GlcNAc(b1-6)GalNAc
How it was run: as §1

[16] = target: Gal(b1-3)GlcNAc(b1-6)[Gal(b1-3)]GalNAc
How it was run: as §1

[17] = target: Gal(b1-3)GlcNAc6S
How it was run: as §1

[18] = target: Gal(b1-3)[Fuc(a1-4)]GlcNAc
How it was run: as §1

[19] = target: Gal(b1-3)[Fuc(a1-4)]GlcNAc(b1-2)Man
How it was run: as §1

[20] = target: Gal(b1-3)[Fuc(a1-4)]GlcNAc(b1-2)Man(a1-3)[Gal(b1-3)[Fuc(a1-4)]GlcNAc(b1-2)Man(a1-6)]Man(b1-4)GlcNAc(b1-4)[Fuc(a1-6)]GlcNAc
How it was run: as §1

[21] = target: Gal(b1-3)[Fuc(a1-4)]GlcNAc(b1-3)Gal(b1-3)[Fuc(a1-4)]GlcNAc
How it was run: as §1

[22] = target: Gal(b1-3)[Fuc(a1-4)]GlcNAc(b1-3)Gal(b1-4)[Fuc(a1-3)]GlcNAc
How it was run: as §1

[23] = target: Gal(b1-3)[Fuc(a1-4)]GlcNAc(b1-6)GalNAc
How it was run: as §1

[24] = target: Gal(b1-3)[GlcNAc(b1-6)]GalNAc
How it was run: as §1

[25] = target: Gal(b1-3)[Neu5Ac(a2-6)]GalNAc
How it was run: as §1

[26] = target: Gal(b1-3)[Neu5Ac(a2-6)]GlcNAc(b1-4)Gal(b1-4)Glc
How it was run: as §1

[27] = target: Gal(b1-3)[Neu5Ac(b2-6)]GalNAc
How it was run: as §1

[28] = target: Gal(b1-4)Gal
How it was run: as §1

[29] = target: Gal(b1-4)GalNAc(a1-3)[Fuc(a1-2)]Gal(b1-4)GlcNAc
How it was run: as §1

[30] = target: Gal(b1-4)GalNAc(b1-3)[Fuc(a1-2)]Gal(b1-4)GlcNAc
How it was run: as §1

[31] = target: Gal(b1-4)Glc
How it was run: as §1

[32] = target: Gal(b1-4)Glc6S
How it was run: as §1

[33] = target: Gal(b1-4)GlcNAc
How it was run: as §1

[34] = target: Gal(b1-4)GlcNAc(a1-6)Gal(b1-4)GlcNAc
How it was run: as §1

[35] = target: Gal(b1-4)GlcNAc(b1-2)Man
How it was run: as §1

[36] = target: Gal(b1-4)GlcNAc(b1-2)Man(a1-3)Man(b1-4)GlcNAc(b1-4)GlcNAc
How it was run: as §1

[37] = target: Gal(b1-4)GlcNAc(b1-2)Man(a1-3)[Gal(b1-4)GlcNAc(b1-2)Man(a1-6)]Man(b1-4)GlcNAc(b1-4)GlcNAc
How it was run: as §1

[38] = target: Gal(b1-4)GlcNAc(b1-2)Man(a1-3)[Gal(b1-4)GlcNAc(b1-2)Man(a1-6)]Man(b1-4)GlcNAc(b1-4)[Fuc(a1-6)]GlcNAc
How it was run: as §1

[39] = target: Gal(b1-4)GlcNAc(b1-2)Man(a1-3)[Gal(b1-4)GlcNAc(b1-2)Man(a1-6)][Gal(b1-4)GlcNAc(b1-4)]Man(b1-4)GlcNAc(b1-4)[Fuc(a1-6)]GlcNAc
How it was run: as §1

[40] = target: Gal(b1-4)GlcNAc(b1-2)Man(a1-3)[Gal(b1-4)GlcNAc(b1-2)Man(a1-6)][GlcNAc(b1-4)]Man(b1-4)GlcNAc(b1-4)[Fuc(a1-6)]GlcNAc
How it was run: as §1

[41] = target: Gal(b1-4)GlcNAc(b1-2)Man(a1-3)[GlcNAc(b1-2)Man(a1-6)]Man(b1-4)GlcNAc(b1-4)GlcNAc
How it was run: as §1

[42] = target: Gal(b1-4)GlcNAc(b1-2)Man(a1-3)[GlcNAc(b1-4)][Gal(b1-4)GlcNAc(b1-2)Man(a1-6)]Man(b1-4)GlcNAc(b1-4)GlcNAc
How it was run: as §1

[43] = target: Gal(b1-4)GlcNAc(b1-2)Man(a1-3)[Man(a1-6)]Man(b1-4)GlcNAc(b1-4)GlcNAc
How it was run: as §1

[44] = target: Gal(b1-4)GlcNAc(b1-2)Man(a1-6)Man(b1-4)GlcNAc(b1-4)GlcNAc
How it was run: as §1

[45] = target: Gal(b1-4)GlcNAc(b1-2)Man(a1-6)[GlcNAc(b1-2)Man(a1-3)]Man(b1-4)GlcNAc(b1-4)GlcNAc
How it was run: as §1

B1: NKR-PIC (Mus musculus) (protein)
chain: GTGQKPSREKCCVFIQENLNKTTDCSVNLECPQDWLLHRDKCFHVSQVSNTWEEGQADCGRKGATLLLIQDQEELRFLLDSIKEKYNSFWIGLRFTLPDMNWKWINGTTFNSDVLKITGVTENGSCASILGDKVTPESCASDNRWICQKELNHETPSNDSGT
Q: With B1 as the binder, how does the “glycan array binding signal (z-score)” value [1] read?
A: -0.294

Q: And the “glycan array binding signal (z-score)” value [2]?
A: 0.794

Q: What about the “glycan array binding signal (z-score)” value [3] of the same binder?
A: -0.393

Q: What about the “glycan array binding signal (z-score)” value [4] of the same binder?
A: -0.293

Q: And the “glycan array binding signal (z-score)” value [5]?
A: -0.325

Q: And the “glycan array binding signal (z-score)” value [6]?
A: -0.294

Q: And the “glycan array binding signal (z-score)” value [7]?
A: -0.298

Q: What about the “glycan array binding signal (z-score)” value [8] of the same binder?
A: -0.025

Q: What about the “glycan array binding signal (z-score)” value [9] of the same binder?
A: -0.181

Q: What about the “glycan array binding signal (z-score)” value [10] of the same binder?
A: -0.376

Q: And the “glycan array binding signal (z-score)” value [11]?
A: -0.324

Q: And the “glycan array binding signal (z-score)” value [12]?
A: -0.302

Q: What about the “glycan array binding signal (z-score)” value [13] of the same binder?
A: -0.29

Q: What about the “glycan array binding signal (z-score)” value [14] of the same binder?
A: -0.33

Q: What about the “glycan array binding signal (z-score)” value [15] of the same binder?
A: -0.342

Q: And the “glycan array binding signal (z-score)” value [16]?
A: -0.308

Q: What about the “glycan array binding signal (z-score)” value [17] of the same binder?
A: -0.356

Q: And the “glycan array binding signal (z-score)” value [18]?
A: -0.262

Q: And the “glycan array binding signal (z-score)” value [19]?
A: -0.313

Q: And the “glycan array binding signal (z-score)” value [20]?
A: -0.317

Q: And the “glycan array binding signal (z-score)” value [21]?
A: -0.393

Q: What about the “glycan array binding signal (z-score)” value [22] of the same binder?
A: -0.355

Q: And the “glycan array binding signal (z-score)” value [23]?
A: -0.37

Q: What about the “glycan array binding signal (z-score)” value [24] of the same binder?
A: -0.028

Q: And the “glycan array binding signal (z-score)” value [25]?
A: -0.312

Q: And the “glycan array binding signal (z-score)” value [26]?
A: -0.302

Q: What about the “glycan array binding signal (z-score)” value [27] of the same binder?
A: -0.284

Q: And the “glycan array binding signal (z-score)” value [28]?
A: -0.361

Q: What about the “glycan array binding signal (z-score)” value [29] of the same binder?
A: 0.143

Q: What about the “glycan array binding signal (z-score)” value [30] of the same binder?
A: -0.153

Q: What about the “glycan array binding signal (z-score)” value [31] of the same binder?
A: -0.325

Q: What about the “glycan array binding signal (z-score)” value [32] of the same binder?
A: -0.293

Q: What about the “glycan array binding signal (z-score)” value [33] of the same binder?
A: -0.065

Q: And the “glycan array binding signal (z-score)” value [34]?
A: -0.332

Q: What about the “glycan array binding signal (z-score)” value [35] of the same binder?
A: -0.257

Q: And the “glycan array binding signal (z-score)” value [36]?
A: 0.039

Q: What about the “glycan array binding signal (z-score)” value [37] of the same binder?
A: -0.342

Q: And the “glycan array binding signal (z-score)” value [38]?
A: -0.274

Q: And the “glycan array binding signal (z-score)” value [39]?
A: -0.225

Q: What about the “glycan array binding signal (z-score)” value [40] of the same binder?
A: 0.13

Q: What about the “glycan array binding signal (z-score)” value [41] of the same binder?
A: -0.321

Q: And the “glycan array binding signal (z-score)” value [42]?
A: 0.15

Q: What about the “glycan array binding signal (z-score)” value [43] of the same binder?
A: -0.323

Q: What about the “glycan array binding signal (z-score)” value [44] of the same binder?
A: -0.334

Q: And the “glycan array binding signal (z-score)” value [45]?
A: -0.347
